Measured values reported in PubChem BioAssay AID662 (National Center for Advancing Translational Sciences (NCATS), 2007).
In all, about 71,000 compounds went through this assay and about 1,800 (2.5%) were called active. Inconclusive means that the source gave no clear call. Such entries were picked first, then a sample of the others. Calls follow the shape of the dose curve; as a rule, active = well fitted activation curve with a large enough effect in the signal ratio, with a control signal flat (not every such curve was filed as active); inconclusive = small, poorly fitted or top-dose-only effect, or effect the other way, or a change in a side signal; inactive = flat fitted curve, though single readings scatter; the % refers to the signal ratio. Where the call is inconclusive, the potency comes from a doubtful curve fit.

Assay: Cell signaling CRE-BLA (Fsk stim); as to activity change, negative = inhibition: % of control where 0% means no effect
Details: CHO CRE-bla reporter (cAMP response element driving beta-lactamase), forskolin EC10, beta-lactamase ratio; activity change, negative = inhibition: at 38.2 µM (top of the series) unless noted
Procedure, shortened: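 CRE-bla CHO reporter cells treated with compound titration plus EC10 NKH 477 (water-soluble forskolin), incubated 3 h at 37 °C; CCF4 loading 2 h at room temperature, 460/530 nm emission ratio read, AC50 values derived for positive or negative modulators.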
Potency is read from the fitted curve at half-maximal effect; tags tell the direction and shape of the fitted curve.

Q: For `Cc1ccc2c(c1)CCCN2C(=O)c1c(C)noc1C`, which activity change, negative = inhibition is on record?
A: inconclusive: -2.01%

Q: For `COCC(=O)Nc1c(C(=O)Nc2cccc(OC)c2)oc2ccccc12`, which “activity change, negative = inhibition” value is on record?
A: inactive: 18.1%

Q: For `O=C(Nc1ccc2oc(-c3ccccc3)nc2c1)c1ccncc1`, which Potency is on record?
A: inconclusive: 5.01 µM [rising, partial curve]

Q: For `Cc1sc2nc(SCC(=O)N3CCOCC3)[nH]c(=O)c2c1C`, which Potency is on record?
A: inconclusive: 12.6 µM [rising, single point]

Q: For `O=C(Nc1ccc2nn(-c3ccccc3)nc2c1)c1ccc2c(c1)OCCO2`, which activity change, negative = inhibition is on record?
A: inconclusive: 1.51% [cytotoxic]

Q: Which Potency does the source give for `Cc1cc(C)n2nc(SCN3C(=O)c4ccccc4C3=O)nc2n1` here?
A: inconclusive: 10 µM [rising, partial curve]

Q: For `COC(=O)N1CCC2(CCCN(c3ccc(-c4ccccc4)cc3)C2)CC1`, which “activity change, negative = inhibition” value is on record?
A: inactive: 0.873%

Q: Which activity change, negative = inhibition does the source give for `O=C(Cn1cnc2ccccc2c1=O)NCC(=O)N1CCN(c2ccccn2)CC1` here?
A: inconclusive: -0.359%

Q: For `CC(C)n1cc(/C=C(\C#N)S(=O)(=O)c2ccccc2)c2ccccc21`, which Potency is on record?
A: inconclusive: 6.31 µM [rising, partial curve]

Q: For `Fc1ccc(-c2ccc(-c3nn4c(-c5ccco5)nnc4s3)o2)cc1`, which “activity change, negative = inhibition” value is on record?
A: inactive: 27.6%

Q: With `O=C(NCc1ccc(Cl)cc1)c1cc2c(nc3sccn32)s1` as the compound, how does the activity change, negative = inhibition read?
A: inconclusive: -16%

Q: Which “activity change, negative = inhibition” value does the source give for `COC(=O)[C@@]1(Cc2ccc(OC)cc2)[C@@H]2[C@@H](CC(=O)[C@H]2CC(=O)C(=O)N2CCCC2)CN1C(=O)c1ccccc1` here?
A: inactive: -12.8%

Q: With `CCCCC(=O)Nc1ccc(NC(=O)CC)cc1OC` as the compound, how does the “activity change, negative = inhibition” value read?
A: inactive: 0.883%

Q: For `Cc1occc1-c1nnc(SCC(=O)NCc2cccs2)n1-c1ccc(F)cc1`, which activity change, negative = inhibition is on record?
A: inconclusive: 2.52%

Q: For `C=CCn1cnc2c(c1=O)c1nc3ccccc3nc1n2/N=C/c1cccc(OC)c1`, which Potency is on record?
A: inconclusive: 6.31 µM [rising, partial curve]

Q: With `Cc1ccc(NC2=CC(=O)CCC2)cc1C` as the compound, how does the “activity change, negative = inhibition” value read?
A: inactive: 2.31%

Q: With `O=C(NC1CCCC1)C(c1cccs1)N(CC1CCCO1)C(=O)Cc1cccs1` (configuration not stated) as the compound, how does the activity change, negative = inhibition read?
A: inconclusive: -14.7%

Q: With `CCOc1cc(N2CCOCC2)c(OCC)cc1NC(=O)CCS(=O)(=O)c1ccc(Cl)cc1` as the compound, how does the “activity change, negative = inhibition” value read?
A: inactive: -3.34%

Q: Which “activity change, negative = inhibition” value does the source give for `CCN(CC)c1ccc(NC(=O)CN2C(=O)CSc3ncccc32)c(C)c1` here?
A: inactive: -7.45%

Q: For `Cn1c(=O)n(Cc2ccccc2F)c(=O)c2c1nc1n2CCCN1CCc1ccccc1`, which Potency is on record?
A: inconclusive: 0.251 µM [rising, partial curve, poor fit]

Q: For `CCCC(c1nnnn1Cc1cccs1)N1CCN(C2CCCC2)CC1` (configuration not stated), which “activity change, negative = inhibition” value is on record?
A: inactive: 0.0689%

Q: For `COc1ccc(-c2noc(CCN3C(=O)c4ccccc4C3=O)n2)cc1OC`, which Potency is on record?
A: active: 3.16 µM
